Measured values reported in the supplement of paper PMC4967469.

Legend:
Experiment in all cases: Viability of human cancer cell lines after 72 h of drug (GDSC screen)
BMX-IN-1 (QL-XII-61) = compound: C=CC(=O)Nc1cc(-n2c(=O)ccc3cnc4ccc(-c5ccc(NS(C)(=O)=O)cc5)cc4c32)ccc1C [BMX-IN-1 (QL-XII-61)]; conditions: top dose 10 µM; top dose inferred
Description: (§1)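 Human cancer cell lines in 384-well plates, medium with 10% serum, drug for 72 h over a 256-fold dose range (nine 2-fold or five 4-fold steps up to the top dose). Adherent lines were fixed and stained with the nucleic acid dye Syto60, suspension lines read with resazurin; signal relative to control wells, capped at 0 and 100%. One two-parameter sigmoid per drug and line, fitted in a mixed model over all curves with the slope shared within a line.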

17-AAG = compound: C=CCNC1=C2C[C@@H](C)C[C@H](OC)[C@H](O)[C@@H](C)/C=C(\C)[C@H](OC(N)=O)[C@@H](OC)/C=C\C=C(/C)C(=O)NC(=CC1=O)C2=O [17-AAG]; conditions: top dose 1 µM
Description: as §1

CCT018159 = compound: CCc1cc(-c2n[nH]c(C)c2-c2ccc3c(c2)OCCO3)c(O)cc1O [CCT018159]; conditions: top dose 10 µM; top dose inferred
Description: as §1

BIX02189 = compound: CN(C)Cc1cccc(N=C(c2ccccc2)c2c(O)[nH]c3cc(C(=O)N(C)C)ccc23)c1 [BIX02189]; conditions: top dose 20 µM; top dose inferred
Description: as §1

Dimethyloxalylglycine = compound: COC(=O)CNC(=O)C(=O)OC [Dimethyloxalylglycine]; conditions: top dose 4000 µM; top dose inferred
Description: as §1

Doxorubicin = compound: COc1cccc2c1C(=O)c1c(O)c3c(c(O)c1C2=O)C[C@@](O)(C(=O)CO)C[C@@H]3O[C@H]1C[C@H](N)[C@H](O)[C@H](C)O1 [Doxorubicin]; conditions: top dose 1.024 µM
Description: as §1

OSI-027 = compound: COc1cccc2cc(-c3nc([C@H]4CC[C@H](C(=O)O)CC4)n4ncnc(N)c34)[nH]c12 [OSI-027]; conditions: top dose 20 µM
Description: as §1

Vismodegib = compound: CS(=O)(=O)c1ccc(C(=O)Nc2ccc(Cl)c(-c3ccccn3)c2)c(Cl)c1 [Vismodegib]; conditions: top dose 10 µM; top dose inferred
Description: as §1

VX-11e = compound: Cc1cnc(Nc2ccc(F)cc2Cl)nc1-c1c[nH]c(C(=O)N[C@H](CO)c2cccc(Cl)c2)c1 [VX-11e]; conditions: top dose 5.12 µM; top dose inferred
Description: as §1

UNC1215 = compound: O=C(c1ccc(C(=O)N2CCC(N3CCCC3)CC2)c(Nc2ccccc2)c1)N1CCC(N2CCCC2)CC1 [UNC1215]; conditions: top dose 1 µM; top dose inferred
Description: as §1

TG101348 = compound: Cc1cnc(Nc2ccc(OCCN3CCCC3)cc2)nc1Nc1cccc(S(=O)(=O)NC(C)(C)C)c1 [TG101348]; conditions: top dose 10.24 µM
Description: as §1

Row | Cell Line | AUC (BMX-IN-1 (QL-XII-61)) | pIC50 (BMX-IN-1 (QL-XII-61)) | AUC (17-AAG) | pIC50 (17-AAG) | AUC (CCT018159) | pIC50 (CCT018159) | AUC (BIX02189) | pIC50 (BIX02189) | AUC (Dimethyloxalylglycine) | pIC50 (Dimethyloxalylglycine) | AUC (Doxorubicin) | pIC50 (Doxorubicin) | AUC (OSI-027) | pIC50 (OSI-027) | AUC (Vismodegib) | pIC50 (Vismodegib) | AUC (VX-11e) | pIC50 (VX-11e) | AUC (UNC1215) | pIC50 (UNC1215) | AUC (TG101348) | pIC50 (TG101348)
1 | GAK (melanoma, adherent) | 0.974 | < 5.00 | 0.635 | 6.84 | 0.974 | < 5.00 | 0.985 | < 4.70 | 0.671 | 3.14 | 0.718 | 6.59 | 0.746 | 5.22 | 0.981 | < 5.00 | 0.886 | < 5.29 | 0.986 | < 6.00 |  | 
2 | NH-12 (neuroblastoma, adherent) | 0.983 | < 5.00 | 0.88 | < 6.00 | 0.888 | < 5.00 | 0.886 | < 4.70 | 0.797 | 2.67 | 0.54 | 7.08 | 0.431 | 6.10 | 0.984 | < 5.00 | 0.719 | 5.84 |  |  | 0.702 | 5.59
3 | SCC90 (head and neck, adherent) | 0.978 | < 5.00 | 0.77 | 6.26 | 0.932 | < 5.00 |  |  | 0.87 | < 2.40 | 0.733 | 6.40 |  |  | 0.981 | < 5.00 |  |  | 0.976 | < 6.00 |  | 
4 | K5 (thyroid, adherent) | 0.746 | 5.51 | 0.723 | 6.59 | 0.866 | 5.08 | 0.952 | < 4.70 | 0.441 | 3.76 | 0.558 | 7.04 |  |  | 0.987 | < 5.00 | 0.986 | < 5.29 | 0.982 | < 6.00 | 0.918 | < 4.99
5 | H290 (mesothelioma, adherent) | 0.987 | < 5.00 | 0.846 | 6.20 | 0.932 | < 5.00 |  |  | 0.518 | 3.55 | 0.626 | 6.86 | 0.182 | 6.81 | 0.989 | < 5.00 |  |  | 0.988 | < 6.00 | 0.91 | < 4.99
6 | DMS-273 (small cell lung carcinoma, adherent) | 0.983 | < 5.00 | 0.715 | 6.58 | 0.941 | < 5.00 | 0.91 | < 4.70 | 0.274 | 4.26 | 0.496 | 7.20 | 0.154 | 7.01 | 0.917 | < 5.00 | 0.887 | < 5.29 |  |  | 0.713 | 5.57
7 | NEC8 (testis, adherent) | 0.972 | < 5.00 | 0.91 | < 6.00 | 0.911 | < 5.00 | 0.927 | < 4.70 | 0.589 | 3.38 | 0.403 | 7.44 | 0.876 | 4.83 | 0.976 | < 5.00 | 0.879 | 5.41 |  |  | 0.779 | 5.45
8 | RKN (ovary, adherent) | 0.793 | 5.31 | 0.92 | < 6.00 | 0.963 | < 5.00 | 0.959 | < 4.70 | 0.553 | 3.45 | 0.771 | 6.38 |  |  | 0.979 | < 5.00 | 0.791 | 5.61 | 0.984 | < 6.00 | 0.843 | 5.11
9 | SW982 (soft tissue, adherent) | 0.754 | 5.46 | 0.426 | 7.41 | 0.899 | < 5.00 | 0.956 | < 4.70 | 0.242 | 4.36 | 0.184 | 8.16 |  |  | 0.959 | < 5.00 | 0.967 | < 5.29 | 0.983 | < 6.00 | 0.698 | 5.63
10 | JHU-029 (head and neck, adherent) | 0.977 | < 5.00 | 0.961 | < 6.00 | 0.876 | < 5.00 |  |  | 0.664 | 3.10 | 0.283 | 7.87 |  |  | 0.957 | < 5.00 |  |  | 0.974 | < 6.00 |  | 
11 | IST-SL2 (small cell lung carcinoma, suspension) | 0.968 | < 5.00 | 0.983 | < 6.00 | 0.971 | < 5.00 |  |  | 0.425 |  | 0.521 | 7.14 | 0.133 | 7.05 | 0.987 | < 5.00 |  |  | 0.973 | < 6.00 | 0.772 | 5.41
12 | KCL-22 (chronic myeloid leukaemia, suspension) | 0.948 | < 5.00 | 0.951 | < 6.00 |  |  | 0.94 | < 4.70 | 0.364 | 3.95 | 0.688 | 6.71 | 0.187 | 6.74 | 0.991 | < 5.00 | 0.924 | < 5.29 | 0.982 | < 6.00 | 0.599 | 5.94
13 | STS-0421 (soft tissue, adherent) | 0.896 | < 5.00 | 0.924 | < 6.00 | 0.881 | < 5.00 |  |  | 0.698 | 3.00 | 0.406 | 7.47 |  |  | 0.981 | < 5.00 |  |  | 0.98 | < 6.00 |  | 
14 | KP-N-YN (neuroblastoma, adherent) | 0.813 | 5.22 | 0.941 | < 6.00 |  |  | 0.971 | < 4.70 | 0.816 | 2.61 | 0.914 | < 5.99 | 0.964 | < 4.70 | 0.986 | < 5.00 | 0.98 | < 5.29 | 0.985 | < 6.00 | 0.947 | < 4.99

pIC50: −log10 of the molar value. IC50 is the fitted dose that halves viability relative to control wells, and lower means more sensitive; a limit (>, <) means that the fit lies beyond the doses tested. AUC is the area under the same curve over the 256-fold range up to the top dose, as a fraction; values near 1 show little effect. For some assays here: Any top dose called inferred was derived from the fitted curves, not read from the paper.
